From publication PMC7332293
These are yes or no findings as the source states them, for the method shown. In cells and extracts the contact can be indirect. Some entries that bind do so weakly or less than the wild type. For part of these data: Where a sequence is shown, tags or fusion partners need not be part of it.

Chains of the proteins cited; added tags and fusions are not shown. Lines headed by an entry give the natural chain unless they say otherwise; changes in a name come on top.
UniProt Q9BY78: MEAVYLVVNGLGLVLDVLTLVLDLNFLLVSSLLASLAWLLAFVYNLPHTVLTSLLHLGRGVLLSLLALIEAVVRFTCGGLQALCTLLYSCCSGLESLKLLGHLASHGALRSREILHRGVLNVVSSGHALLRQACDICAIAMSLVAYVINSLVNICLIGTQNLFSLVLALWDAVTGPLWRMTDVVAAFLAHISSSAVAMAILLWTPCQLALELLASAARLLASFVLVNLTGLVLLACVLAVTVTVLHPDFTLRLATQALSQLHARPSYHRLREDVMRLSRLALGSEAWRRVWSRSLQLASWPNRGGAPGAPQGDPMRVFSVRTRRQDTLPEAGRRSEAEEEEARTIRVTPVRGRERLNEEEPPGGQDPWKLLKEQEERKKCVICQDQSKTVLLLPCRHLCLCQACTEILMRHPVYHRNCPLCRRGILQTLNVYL

Legend:
S-tagged UBXD8 = biological target: T1, S-tagged UBXD8 (UniProt Q96CS3); assay: pull-down; S-tagged HCIP transiently expressed in Flp-In293 cells stably expressing the FH-tagged E3; lysates in 1% LMNG; S-protein agarose; western blot
T1 sequence: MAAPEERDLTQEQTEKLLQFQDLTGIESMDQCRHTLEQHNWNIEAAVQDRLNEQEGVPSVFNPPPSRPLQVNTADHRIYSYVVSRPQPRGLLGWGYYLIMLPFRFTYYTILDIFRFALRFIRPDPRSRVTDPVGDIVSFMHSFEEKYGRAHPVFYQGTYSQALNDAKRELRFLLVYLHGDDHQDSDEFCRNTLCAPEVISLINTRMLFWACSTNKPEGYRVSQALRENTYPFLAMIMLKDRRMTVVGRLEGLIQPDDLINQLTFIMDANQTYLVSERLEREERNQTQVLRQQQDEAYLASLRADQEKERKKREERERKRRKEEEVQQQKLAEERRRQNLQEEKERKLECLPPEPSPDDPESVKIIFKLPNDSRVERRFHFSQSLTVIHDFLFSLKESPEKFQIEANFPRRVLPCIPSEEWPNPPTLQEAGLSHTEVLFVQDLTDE

S-tagged TMEM43 (human) [1] = biological target: T2, S-tagged TMEM43 (human) (UniProt Q9BTV4); assay: as above
T2 sequence: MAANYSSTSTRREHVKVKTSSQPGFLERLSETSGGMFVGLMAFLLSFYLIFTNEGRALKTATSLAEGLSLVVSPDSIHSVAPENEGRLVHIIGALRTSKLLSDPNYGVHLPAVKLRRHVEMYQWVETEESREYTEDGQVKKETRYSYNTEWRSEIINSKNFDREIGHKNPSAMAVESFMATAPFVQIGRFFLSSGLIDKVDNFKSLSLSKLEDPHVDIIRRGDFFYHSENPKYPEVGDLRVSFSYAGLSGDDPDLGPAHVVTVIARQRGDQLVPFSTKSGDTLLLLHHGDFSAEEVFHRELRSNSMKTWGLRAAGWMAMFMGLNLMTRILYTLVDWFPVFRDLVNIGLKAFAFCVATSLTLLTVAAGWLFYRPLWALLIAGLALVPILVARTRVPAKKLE

S-tagged AUP1 = biological target: T3, S-tagged AUP1 (UniProt Q9Y679); assay: as above
T3 sequence: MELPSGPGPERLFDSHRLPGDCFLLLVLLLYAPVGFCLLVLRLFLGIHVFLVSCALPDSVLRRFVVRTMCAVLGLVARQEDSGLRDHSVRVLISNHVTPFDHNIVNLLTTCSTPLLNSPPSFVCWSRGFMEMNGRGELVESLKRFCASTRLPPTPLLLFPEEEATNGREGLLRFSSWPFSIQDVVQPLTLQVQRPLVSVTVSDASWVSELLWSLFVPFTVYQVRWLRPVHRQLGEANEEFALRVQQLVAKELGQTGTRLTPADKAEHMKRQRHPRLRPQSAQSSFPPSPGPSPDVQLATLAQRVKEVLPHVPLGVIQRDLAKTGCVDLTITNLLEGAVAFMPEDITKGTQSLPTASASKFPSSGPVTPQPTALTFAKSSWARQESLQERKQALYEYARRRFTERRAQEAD

S-tagged TMEM43 (human) [2] = biological target: T2, S-tagged TMEM43 (human); assay: pull-down; S-tagged HCIP transiently expressed in FH-RNF26 Y432A Flp-In293 cells; lysates in 1% TX-100; S-protein agarose; western blot (anti-S-tag, anti-HA)
FH-RNF26_(Y432A) (human) = FH-RNF26_(Y432A) (human) (UniProt Q9BY78); assay: co-IP; DOX-induced Flp-In293 cells stably expressing FH-RNF26; anti-FLAG beads; endogenous RNF26 detected by western blot

Substance | binding (S-tagged UBXD8) | binding (S-tagged TMEM43 (human) [1]) | binding (S-tagged AUP1) | binding (S-tagged TMEM43 (human) [2]) | binding (FH-RNF26_(Y432A) (human))
FH-RNF26WT (from UniProt Q9BY78 1-433) (enzyme) | binds | binds | binds |  | 
FH-RNF26_(Y432A) (from UniProt Q9BY78 1-433) (enzyme) |  | binds |  | binds | 
endogenous RNF26 (from UniProt Q9BY78 1-433) (enzyme) |  |  |  |  | binds
